In all, about 410,000 compounds went through this assay and about 490 (0.12%) were called active. Inconclusive means that the source gave no clear call. Such entries were picked first, then a sample of the others. Calls follow the shape of the dose curve; as a rule, active = well fitted inhibition curve with a large enough effect; inconclusive = small, poorly fitted or top-dose-only effect; inactive = flat fitted curve, though single readings scatter. Potencies beside an inconclusive call are fits to weak or partial responses and may not hold up.
The compounds below were run against pyruvate kinase (Trypanosoma brucei) (UniProt Q57TT1) (assay: qHTS of Trypanosoma Brucei Inhibitors). Details: TbPYK enzyme, Kinase-Glo Plus ATP luminescence, 45 min; series mostly up to 76.8 µM.
Summary of the method: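 Luminescent Kinase-Glo Plus end-point after 45 min room-temperature reaction of T. brucei pyruvate kinase started with 130 uM ADP (final). Buffer TEA 50 mM pH 7.2 with KCl, MgCl2, BSA, Tween-20; titration-based qHTS with fitted concentration-effect curves.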
Cc1ccc(CC2C(=O)N(C)C(=O)N(C)C2=O)s1 was tested, and the Potency was inconclusive: 35.5 µM [inhibitor, single point].
COc1ccc(CCCC(=O)N/N=C/c2ccc(C)cc2)cc1 was tested, and the Potency was “inactive”.
In the case of Cc1cc(-c2n[nH]c(=S)n2/N=C/c2cc([N+](=O)[O-])ccc2Cl)n[nH]1, the Potency is reported as active: 3.98 µM.
In the case of COc1ccccc1Cc1c(-c2ccco2)nc2c(C)cc(Br)cn12, the Potency is reported as inconclusive: 31.6 µM [inhibitor, partial curve, poor fit].
For CCc1c(C)[nH]c(=S)c(C#N)c1C, the Potency was inconclusive: 31.6 µM [inhibitor, partial curve, poor fit].
For CCn1c(CSc2nc3ccccc3s2)n[nH]c1=S, the Potency was inconclusive: 12.6 µM [inhibitor, partial curve, poor fit].
With CCCn1c(SCC(=O)c2c[nH]c3ccccc23)nnc1-c1ccncc1 the Potency was inconclusive: 31.6 µM [inhibitor, single point].
For Cc1cc(C)nc(/N=C(\N)N2CCCCC2)n1, the Potency was “inactive”.
In the case of CCOc1ccc(NC(=O)c2c(NCc3cccnc3)sc3c2CCC(C)C3)cc1 (stereo not drawn), the Potency is reported as active: 14.1 µM.
In the case of N#Cc1ccccc1CSc1ccccn1, the Potency is reported as “inactive”.
In the case of CN1C(=O)C(=Cc2coc3ccccc3c2=O)C(=O)N(C)C1=O, the Potency is reported as inconclusive: 20 µM [inhibitor, partial curve, poor fit].
For Cc1[nH]c(=S)c(C#N)c(C)c1Cc1ccccc1, the Potency was inconclusive: 3.98 µM [inhibitor, partial curve, poor fit].
For Cc1ccc2oc(C(=O)N3CCC(N4CCSCC4)CC3)c(C)c2c1, the Potency was “inactive”.
With CC(=O)NC1Sc2ccccc2N=C1c1ccccc1 (stereo not drawn) the Potency was inconclusive: 31.6 µM [inhibitor, single point].
In the case of COCCNC(=O)C(c1ccco1)N(C(=O)Cn1nnc2ccccc21)c1cc(C)ccc1C (stereo not drawn), the Potency is reported as inconclusive: 28.2 µM [inhibitor, single point].
For O=C(N/N=C/c1cccnc1)c1ccc(NC(=O)c2ccc(Cl)cc2)cc1, the Potency was “inactive”.
With O=C(Nc1ccc(C(=O)N2CCCCC2)cc1)c1nsc2ccccc12 the Potency was inconclusive: 17.8 µM [inhibitor, partial curve].
CCN(CC)S(=O)(=O)c1ccc2c(c1)nc(CN(C)C(=O)Nc1ccc(F)cc1)n2C was tested, and the Potency was inconclusive: 25.1 µM [inhibitor, single point].
With Cc1c(C(=O)OCC(=O)N(C)CC(=O)Nc2ccc(F)cc2)oc2ccccc12 the Potency was “inactive”.
In the case of Cc1ccc(-c2noc(CNC(=O)COc3ccccc3C)n2)cc1, the Potency is reported as “inactive”.
CCc1cc(-c2n[nH]c(C)c2-c2ccccc2Cl)c(O)cc1OC was tested, and the Potency was “inactive”.
With CCSC(SCC)[C@H](O)[C@@H](O)[C@H](O)[C@H](O)CO the Potency was “inactive”.
In the case of O=C(O)C1CCc2sc3[nH]c(=S)n(-c4ccccc4)c(=O)c3c21 (stereo not drawn), the Potency is reported as inconclusive: 10 µM [inhibitor, partial curve, poor fit].
Cc1ccc(C2CC(=O)N3CN(c4ccc(Br)cc4)CSC3=C2C#N)o1 (stereo not drawn) was tested, and the Potency was inconclusive: 28.2 µM [inhibitor, partial curve, poor fit].
Cc1oc(-c2ccc3c(c2)OCCO3)cc1C(=O)O was tested, and the Potency was inconclusive: 28.2 µM [inhibitor, partial curve].
With COc1ccc(-n2nc3cc(C)c(N)c(Br)c3n2)cc1 the Potency was inconclusive: 31.6 µM [inhibitor, partial curve].
For N#CC1=C2SCN(C3CCCCC3)CN2C(=O)CC1c1ccc(Br)cc1 (stereo not drawn), the Potency was inconclusive: 39.8 µM [inhibitor, partial curve, poor fit].
S=C(NN=C(c1ccccc1)c1ccccn1)N(Cc1ccccn1)Cc1ccccn1 was tested, and the Potency was inconclusive: 12.6 µM [inhibitor, partial curve].
With O=C(O)c1ccccc1-c1ccc(C=c2sc3nc4cc(Br)cnc4n3c2=O)o1 the Potency was inconclusive: 31.6 µM [inhibitor, partial curve, poor fit].
Cn1c(CCNC(=O)c2ccc(Cl)cc2)n[nH]c1=S was tested, and the Potency was inconclusive: 25.1 µM [inhibitor, partial curve].
In the case of O=C(/C=C/c1cccs1)N1CCc2ccccc21, the Potency is reported as inconclusive: 31.6 µM [inhibitor, partial curve, poor fit].
With COC(=O)c1ccc(C2c3c(oc4ccc(C)cc4c3=O)C(=O)N2Cc2ccc3c(c2)OCO3)cc1 (stereo not drawn) the Potency was “inactive”.
With CC12CCC(C(=O)N(CSC(=S)N/N=C\c3ccccc3)C1=O)C2(C)C (stereo not drawn) the Potency was inconclusive: 50.1 µM [inhibitor, single point].
For Clc1cc2nc3ccccn3c2cc1Cl, the Potency was “inactive”.
For O=C(Cc1ccccc1)NNC(=S)NC(=O)c1cccnc1, the Potency was inconclusive: 20 µM [inhibitor, partial curve, poor fit].
With CCCCC1(Br)C(=O)N(c2ccccc2)N(c2ccccc2)C1=O the Potency was inconclusive: 39.8 µM [inhibitor, single point].
For S=c1[nH]nc(Nc2ccccc2)s1, the Potency was inconclusive: 14.1 µM [inhibitor, partial curve, poor fit].
For COc1ccc(C(CCN(Cc2ccc(OC)c(OC)c2)C(C)=O)c2ccccc2)cc1 (stereo not drawn), the Potency was “inactive”.
With Cc1noc(C)c1S(=O)(=O)Nc1ccccc1Oc1ccccc1 the Potency was inconclusive: 39.8 µM [inhibitor, single point].
For O=C1CC(C(F)(F)C(F)(F)C(F)(F)C(F)F)=Nc2ccccc2N1, the Potency was inconclusive: 44.7 µM [inhibitor, partial curve, poor fit].
With Cc1ccc2sc(-c3ccc(NC(=O)/C=C\C(=O)O)cc3)nc2c1 the Potency was inconclusive: 50.1 µM [inhibitor, single point].
For CC(/C=N/n1c(-c2n[nH]c3c2CCC3)n[nH]c1=S)=C\c1ccco1, the Potency was inconclusive: 1.26 µM [inhibitor, full curve].
With CCOc1cc(NC(=O)c2ccccc2C(=O)O)c(OCC)cc1NC(=O)c1ccccc1F the Potency was inconclusive: 8.91 µM [inhibitor, partial curve].
With Cc1ccc(C(=O)Nc2nnc(S(=O)(=O)N(C)Cc3ccco3)s2)cc1 the Potency was inconclusive: 28.2 µM [inhibitor, single point].
With CC(C)C[C@@H](NC(=O)[C@@H](Cc1ccccc1)NC(=O)c1cnccn1)B(O)O the Potency was “inactive”.
CC(C)n1c(SCC(=O)N2CCN(C(=O)c3ccco3)CC2)nc2c1c(=O)n(C)c(=O)n2C was tested, and the Potency was inconclusive: 35.5 µM [inhibitor, single point].
COc1ccc([C@H]2C(C#N)=C([S-])N[C@](C)(O)[C@@H]2[n+]2ccccc2)cc1 was tested, and the Potency was inconclusive: 31.6 µM [inhibitor, partial curve, poor fit].
For CC(C)=NN1C(c2nonc2N)=NOC1(C)C, the Potency was inconclusive: 50.1 µM [inhibitor, single point].
For COc1cccc(-n2ccn(CC(=O)Nc3ccccc3F)c(=O)c2=O)c1, the Potency was “inactive”.
For COc1cc(/C=N/n2c(-c3cc(C)[nH]n3)n[nH]c2=S)cc(OC)c1O, the Potency was inconclusive: 7.08 µM [inhibitor, partial curve].
C=CC[n+]1c(-c2ccc(C)cc2)csc1Nc1ccc(NC(C)=O)cc1 was tested, and the Potency was “inactive”.
Cc1n[nH]c(=S)n1/N=C/c1ccccc1OCc1ccc(Cl)cc1 was tested, and the Potency was inconclusive: 14.1 µM [inhibitor, partial curve, poor fit].
With O=S(=O)(O)c1cc(I)c(O)c2ncccc12 the Potency was inconclusive: 50.1 µM [inhibitor, single point].
In the case of Cc1cccc(N(C(=O)CNC(=O)c2ccco2)C(C(=O)NC2CCCCC2)c2cccnc2)c1 (stereo not drawn), the Potency is reported as “inactive”.
In the case of O=C(NCc1ccc(F)cc1)C1CCN(S(=O)(=O)c2ccc3c(c2)CCCN3C(=O)C2CCC2)CC1, the Potency is reported as “inactive”.
With CCN(CC(=O)NCc1ccccn1)S(=O)(=O)c1ccc(Cl)cc1 the Potency was inconclusive: 12.6 µM [inhibitor, partial curve].
c1cncc(Nc2nc(-c3cccs3)cs2)c1 was tested, and the Potency was inconclusive: 25.1 µM [inhibitor, partial curve, poor fit].
In the case of O=C1/C(=C/c2cccs2)CCc2ccccc21, the Potency is reported as inconclusive: 25.1 µM [inhibitor, partial curve, poor fit].
With C1=CC2c3ccccc3NC(c3ccncc3)C2C1 (stereo not drawn) the Potency was inconclusive: 10 µM [inhibitor, partial curve].
With CCOc1ccccc1-n1c(=S)sc2c(=O)n(-c3ccccc3)c(=S)[nH]c21 the Potency was inconclusive: 10 µM [inhibitor, partial curve, poor fit].
For COc1ccc(-c2n[nH]c(=S)n2Cc2ccccc2)cc1OC, the Potency was inconclusive: 5.62 µM [inhibitor, partial curve].
For COc1cc(/C=C2\SC(c3ccc(C)cc3)=NC2=O)cc(OC)c1O, the Potency was inconclusive: 28.2 µM [inhibitor, partial curve, poor fit].
For CC(C)NC(=O)c1cc2n(n1)C(C(F)(F)F)CC(c1ccco1)N2 (stereo not drawn), the Potency was “inactive”.
In the case of Cc1ccc(-n2c(Cn3c(C)nc4ccccc43)n[nH]c2=S)cc1, the Potency is reported as inconclusive: 17.8 µM [inhibitor, partial curve, poor fit].
In the case of Cc1ccc(/C=C2\SC(=S)N(CC3CCCO3)C2=O)o1 (stereo not drawn), the Potency is reported as inconclusive: 28.2 µM [inhibitor, single point].
With O=C(NN=C1CCCCCCC1)C(=O)NC1CCCCC1 the Potency was “inactive”.
With CN1CCN(CCCNC(=O)c2ccc(Cn3c(=S)[nH]c4ccc(Br)cc4c3=O)cc2)CC1 the Potency was inconclusive: 12.6 µM [inhibitor, partial curve, poor fit].
O=C(CSc1nc(=O)n(CCN2CCOCC2)c2c1CCC2)Nc1ccc(OC(F)(F)F)cc1 was tested, and the Potency was “inactive”.
Also: nearly all actives have a fitted effect of over 50% in size.
Potency is read from the fitted curve at half-maximal effect; tags tell the direction and shape of the fitted curve.
